Measurements: the supplement of paper PMC10338343
± gives the standard deviation. The full ranking holds about 5,500 sequences; the median of “pre-steady-state target cleavage rate” is about 0.1, and the highest 2% start at about 0.64. The entries are a selection whose mix differs from that of the whole data set.

Tested on: MIWI (PIWIL1) piRISC loaded with piRNA #2 (30 nt)
Assay: pre-steady-state target cleavage rate (min^-1); MIWI and MILI are mouse PIWI proteins and EfPiwi is from a freshwater sponge; tags in brackets are library labels; higher = faster piRNA-guided slicing of the target
Details: guide: piRNA #2 5'p-UUAGGUAACCCAGUAGAUCCAGAGGAAUUC; auxiliary factor: 500 nM mouse GTSF1
Procedure: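 Cleave-'n-Seq: a library of target RNAs (target site embedded in constant flanks, ACAGCATTCCGCGTTAGTGATATCCG... 5' flank; DNA-blocked outside the site) at 0.1 nM was incubated with 1 nM active mouse MILI or MIWI piRISC (synthetic 5'-monophosphorylated piRNA guide) with or without 500 nM mouse GTSF1 at 33 °C for 1 min to 16 h. Uncleaved targets were sequenced and normalised to non-target controls, and the pooled three trials were fitted to a burst-and-steady-state model to give the pre-steady-state cleavage rate (min^-1; k3 is constrained to at most 1e-4). Sequence is the target site only; target names encode pairing extent (gX:gY) and contiguous / 1-mismatch / 2-mismatch / bulge geometry. Fits with R² ≤ 0 are excluded.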

| Sequence | pre-steady-state target cleavage rate |
| --- | --- |
| CUUAAGGACUGGAUCUACUGGGUCUACCUAA | 0.0638 ± 0.033 |
| CUUUUCCUCUGGAUCUACUCCGUUACCUAA | 0.0234 ± 0.0069 |
| CUUAAGGAGACCUAGUACAGCGUUACCUAA | 0.0042 ± 0.0016 |
| CAAUUGCUCUGGAUCUACUGGGAUACCUAA | 0.238 ± 0.037 |
| CAAUUCCUCUGCAUCUACUGGGUUUCCUAA | 0.285 ± 0.083 |
| GAAUUCCUCUGAUCUACUGGGUUACCUAA | 0.454 ± 0.062 |
| CUUGUCCUCUGGAUCUACUGGGUUACCUAA | 0.247 ± 0.035 |
| CUAUUCCUCUCGAACUACUGGGUUACCUAA | 0.474 ± 0.038 |
| CUUAAGGAGUGGAUCUACUGGGUUACCAUAA | 0.0177 ± 0.011 |
| CUUUUCCUCUGGAUCUACUGGGUUACCUAU [g2:g27:cont:t1U] | 0.371 ± 0.051 |
| CUAUUCCUCUGAUCUACUGGGUUACCUAA | 0.395 ± 0.048 |
| CUUAAGGACUGGAUCUACUGGGUUACACUAA | 0.211 ± 0.071 |
| CUUAAGGUCUGGUUCUACUGGGUUACGUAA | 0.296 ± 0.037 |
| CAAUUCCUCUGGAUCUACUGGGUUACCUUA | 0.425 ± 0.066 |
| CAAUUCCUCUGGAUCUACUGCGUUACCAAA | 0.434 ± 0.097 |
| CUUAAGGUUCUGGAUCUACUGGGUUACCUAA | 0.127 ± 0.015 |
| CUUAUCCUCUGGAUCUUGUGGGUUACCUAA | 0.00506 ± 0.0026 |
| GAAUUCCUCUGCAUCUACUGGGUUACGUAA | 0.497 ± 0.038 |
| CUUUUCCUCUGGAACUACUGGGUUACCUAA | 0.447 ± 0.032 |
| CUUAUCCUCUGGAUCUACGGGUUACCUAA | 0.0503 ± 0.0077 |

| Sequence | pre-steady-state target cleavage rate |
| --- | --- |
| CUUAAGGACUGGAUGUACAGGGUUACCUAA | 0.0401 ± 0.024 |
| CUUAAGCUCUGGAUCUACAGGGUUACCAAA | 0.102 ± 0.013 |
| CUUAACCUCUGGAUCUAGUGCGUUACCUAA | 0.0345 ± 0.007 |
| GAAUUCCUCUGGUCUACUGGGUUACCUAA | 0.301 ± 0.059 |
| CUUUACCUCUGGAUCUUCUGGGUUACCUAA | 0.261 ± 0.035 |
| CUUAUCCUCUGGAUCUACUCGGAUACCUAA | 0.0144 ± 0.0094 |
| GAAAUCCUCUGGAACUACUGGGUUACCUAA | 0.253 ± 0.041 |
| CUUACCCUCUGGAUCUACUGGGUUACCUAA | 0.324 ± 0.032 |
| CAAUUCCUCUGUGAUCUACUGGGUUACCUAA | 0.507 ± 0.032 |
| GCAAUUCCUCUGGAUCUACUGGGUUACCUAA | 0.202 ± 0.042 |
| CAAUUCCUCUGGUAUCUACUGGGUUACCUAA | 0.548 ± 0.083 |
| CUUAAGCUCUGGAUCUACUGGGUGACCUAA | 0.081 ± 0.011 |
| CUAUUCGUCUGGAUGUACUGGGUUACCUAA | 0.0594 ± 0.033 |
| CUUAAGGAGUGGAUCUACUGGGUUACCUAG [g2:g21:cont:t1G] | 0.0565 ± 0.01 |
| GAAUUCCUCUGAAUCUACUGGGUUACCUAA | 0.306 ± 0.055 |
| CUUAUCCUCUGGAUCUAGUCGGUUACCUAA | 0.00661 ± 0.004 |
| CUUAUCCUGUGGAUCUACUGGGUUACCUUA | 0.307 ± 0.049 |
| CAAUUCCUCUGGAUCUACUGGGUUUGCUAA | 0.323 ± 0.073 |
| CUUUUCCUCUGGACUACUGGGUUACCUAA | 0.25 ± 0.03 |
